According to PubChem BioAssay AID2546 (National Center for Advancing Translational Sciences (NCATS), 2010):
Out of some 310,000 compounds screened, about 11,000 (3.5%) were called active. Inconclusive results, whose numbers are uncertain, are shown with a selection of clear calls. The call rests on the fitted dose curve; in most records, active means well fitted inhibition curve with a large enough effect; inconclusive means small, poorly fitted or top-dose-only effect, or effect the other way; inactive means flat fitted curve, though single readings scatter. No potency is given beside an inconclusive call; the fits are too rough.

assay: VP16 counterscreen qHTS for inhibitors of ROR gamma transcriptional activity; conditions: Drosophila S2 Gal4-VP16 UAS-luciferase, luminescence, 20 h; activity, negative = inhibition: at 53.6 µM (top of the series);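 further: Gal4-VP16 expression switched on by copper sulfate through the metallothionein promoter; nearly all actives have a fitted effect of over 50% in size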
On the % scale 0 is the no-effect control and ±100 the full control effect; potency means the concentration at half of the fitted maximal effect; tags describe the fitted curve by direction and shape.

SMILES	activity, negative = inhibition	Potency
Cc1oc(-c2ccc(F)cc2)nc1CN1CCCC(C(=O)N2CCOCC2)C1 (centres undefined)	inactive: 0.32%	–
O=S1(=O)CCC(N=Cc2ccc(-c3ccc(Cl)cc3)o2)C1 (centres undefined)	–	inconclusive [inhibitor, single point]
COc1ccc(C2CC(c3ccccc3)=NN2C(=O)CSc2ncccn2)cc1 (centres undefined)	–	inconclusive [inhibitor, full curve, poor fit]
CC(OC(=O)c1snc(C(=O)NC2CCCCC2)c1N)C(=O)NC(C)(C)C (centres undefined)	–	inconclusive [inhibitor, single point]
NS(=O)(=O)c1ccc(F)c(C(=O)O)c1	inactive: 8.7%	–
Cc1ccc2oc(C(=O)NCCC3CCCCO3)c(C)c2c1 (centres undefined)	–	inconclusive [inhibitor, single point]
CN(C)/C=C/C(=O)/C=C/c1ccc(Cl)cc1Cl	inactive: -17.9%	–
O=C(Nc1ccc(-c2nnc(-c3ccco3)o2)cc1)C(c1ccccc1)c1ccccc1	inactive: -0.902%	–
CCc1ccc(NC(=S)N(CCN2CCOCC2)Cc2ccccc2F)cc1	–	inconclusive [inhibitor, single point]
O=c1[nH]c(C2CCCN(S(=O)(=O)c3ccccc3)C2)nc2c1nnn2Cc1cccc(Cl)c1 (centres undefined)	–	inconclusive [inhibitor, single point]
CCOc1cc(NC(=S)NCc2ccco2)c(OCC)cc1NC(=O)c1ccco1	–	inconclusive [inhibitor, single point]
Oc1ccc(Cl)cc1C1=Nc2ccccc2N=C(c2ccco2)C1	–	inconclusive [inhibitor, partial curve]
Cc1ncc(CO)c(/C=N/NC(=O)c2ccccc2Br)c1O	–	active: 17.8 µM
O=C(Nc1cccc(Cl)c1)c1csc(-c2ccccc2)n1	–	inconclusive [inhibitor, single point]
CN(C)/C=N/C(=S)Nc1ccc(Br)cc1F	–	active: 12.6 µM
O=C(NCCc1ccc2c(c1)OCCO2)c1cc2ccccc2o1	–	inconclusive [inhibitor, single point]
Cc1ccc(NC(=S)N2CCSC2c2cccs2)cc1 (centres undefined)	–	inconclusive [inhibitor, single point]
Cc1cc2nn(-c3ccc(Cl)cc3)nc2cc1N	–	inconclusive [inhibitor, single point]
CCOC(=O)c1ccc(N2C(=O)C(CC(N)=O)N(CCc3ccc(OC)c(OC)c3)C2=S)cc1 (centres undefined)	–	inconclusive [inhibitor, partial curve]
Cc1ccc(S(=O)(=O)Nc2ccc(-c3nc4cc(NS(=O)(=O)c5ccc(C)cc5)ccc4o3)cc2)cc1	–	inconclusive [inhibitor, single point]
c1ccc2c(c1)OCCOCCOCCOCCOCCOc1ccccc1OCCOCCOCCO2	–	inconclusive [inhibitor, single point]
CCN1C(=O)C(CC(=O)Nc2ccc(Br)cc2)N(CCCc2ccccc2)C1=S (centres undefined)	–	inconclusive [inhibitor, single point]
COc1ccc(C(=O)/C=C/c2ccc(OC3CSC3)cc2)cc1OC	–	inconclusive [inhibitor, single point]

SMILES	activity, negative = inhibition	Potency
O=C(c1cc(COc2ccc(F)cc2Cl)on1)N1CCN(C2CCCCC2)C(=O)C1	–	inconclusive [inhibitor, single point]
Cc1cc(Cl)ccc1OCc1n[nH]c(=S)n1C1CCCCC1	–	active: 2.51 µM
CCn1c(SCC(=O)N2c3ccccc3CCc3ccccc32)nnc1-c1ccc(OC)cc1	–	inconclusive [inhibitor, partial curve]
CC(C)(C)C(=O)Oc1ccc2cc(-c3ccc4ccccc4n3)c(=O)oc2c1	–	inconclusive [activator, single point]
COc1ccc(NC(=O)c2ccc3c(c2)OCO3)cc1	–	inconclusive [inhibitor, single point]
COc1cc(C2Oc3ccccc3C=C2[N+](=O)[O-])cc(OC)c1OC (centres undefined)	–	active: 12.6 µM
C[N+]1(C)CCc2cc3c(cc2[C@@H]1[C@@H]1C(=O)Oc2c1ccc1c2OCO1)OCO3	–	inactive
Cc1ccc(CSCC(=O)N2CCN(c3ccccc3)CC2)cc1	–	inconclusive [activator, single point]
COc1cc(-c2cc(C(=O)Nc3ccc(S(=O)(=O)Nc4ncccn4)cc3)c3ccccc3n2)cc(OC)c1OC	–	active: 11.2 µM
CCCCn1c(=O)[nH]c(=O)c2c1nc(CN(C)Cc1cccc(OC)c1OC)n2CCC	inactive: -2.58%	–
CCOC(=O)CSc1nc2ccccc2n2cnnc12	–	inconclusive [inhibitor, single point]
COc1cc(/C=C/C(=O)c2cccs2)cc(OC)c1OC	–	inconclusive [inhibitor, partial curve]
S=C(Nc1ccc(Br)cc1)Nc1ccc2c(c1)OCCO2	–	inconclusive [inhibitor, single point]
COc1ccc2cc3cc(C(=O)Nc4ccc5c(c4)OCO5)oc3nc2c1	–	inconclusive [inhibitor, single point]
O=C(C1CCN(S(=O)(=O)c2cccnc2)CC1)N1CCN(c2cccc(Cl)c2)CC1	–	inconclusive [inhibitor, single point]
Cc1ccc(Nc2ccc(C(N)=O)cc2[N+](=O)[O-])cc1	–	inconclusive [activator, single point]
CC(C)Nc1nnc(SCC(=O)/C=C2\N(C)c3ccccc3C2(C)C)s1	–	inconclusive [inhibitor, single point]
N=c1c2ccccc2nnn1-c1ccc(C(F)(F)F)cc1	inactive: -6.7%	–
C=CCn1c(-c2cccc(Cl)c2)n[nH]c1=S	–	active: 7.08 µM
Cn1cc(-c2nc3cnc(N4CCNCC4)nc3n(C)c2=O)c2ccccc21	–	active: 11.2 µM
CCOC(=O)c1c(NC(=O)CN2CCCc3ccccc32)sc(C)c1C	–	inconclusive [inhibitor, single point]
O=C(Nc1ccc(N2CCN(Cc3ccccc3F)CC2)cc1)c1ccc([N+](=O)[O-])o1	–	inconclusive [inhibitor, single point]
CC(C)CCSc1cc(NCCO)c([N+](=O)[O-])c2nonc12	–	inconclusive [inhibitor, single point]

SMILES	activity, negative = inhibition	Potency
Cc1nnc(SCc2cc(=O)oc3cc(O)ccc23)n1Cc1ccccc1	inactive: -3.4%	–
CC(C)n1nnc2c(=O)oc3ccccc3c21	–	inconclusive [activator, single point]
Cc1cccc(C(=O)Nc2nc(C)c(C(=O)Nc3ccc4c(c3)CCC4)s2)c1	–	inconclusive [inhibitor, single point]
Cc1ccc(S(=O)(=O)Nc2ccc(Cl)cc2C(=O)c2ccc(F)cc2)cc1	–	inconclusive [inhibitor, single point]
CCN1CCN(c2cc(C)c3cc(NC(=S)N4CCCCC4)ccc3n2)CC1	–	inconclusive [inhibitor, single point]
COC(=O)[C@@H]1CCCN1C(=O)[C@@H](NC(=O)OC(C)(C)C)C(C)C	inactive: 7.13%	–
COc1cccc(/C=C2\Oc3ccc(O)cc3C2=O)c1O	–	inconclusive [inhibitor, partial curve, poor fit]
Cc1cc(CNC(=O)COc2cc(F)ccc2[N+](=O)[O-])c2ccccc2n1	–	inconclusive [inhibitor, single point]
O=C(Nc1ccccc1)C1=C[C@@H](c2ccc(Br)cc2)C[C@@H](OCc2ccc(CO)cc2)O1	–	inconclusive [inhibitor, single point]
O=C1CN(C(=S)NC(=O)c2ccc(-c3ccccc3)cc2)CCN1	–	active: 10 µM
CCC(=O)NC1=C(Nc2ccc(N)cc2)C(=O)c2ccccc2C1=O	–	inconclusive [inhibitor, single point]
O=c1cc(-c2ccccc2Cl)oc2c([N+](=O)[O-])c(O)cc(O)c12	–	inconclusive [inhibitor, single point]
O=c1c(-c2ccco2)[n+]([O-])c2ccccc2n1OCc1c(F)cccc1F	inactive: 2.46%	–
COc1ccc(-c2csc3ncnc(N4CCN(c5ccccc5O)CC4)c23)cc1	–	inconclusive [inhibitor, single point]
CCOC(=O)C1=C(C)NC2=C(C(=O)c3ccccc32)C1c1cccc2ccccc12 (centres undefined)	inactive: 21.5%	–
COc1ccc(CCCc2nnc(SCc3nc4ccccc4c(=O)[nH]3)n2C)c(C)c1	inactive: -5.36%	–
CCCn1c(/C=N/Nc2nc3ccccc3[nH]2)nc2ccccc21	–	active: 3.16 µM
CCOC(=O)C1CCN(c2ncnc3c2oc2ccccc23)CC1	–	inconclusive [inhibitor, single point]
CC(C)=CCC1C(=O)N(c2ccccc2)N(c2ccccc2)C1=O	–	inconclusive [activator, single point]
N=c1ccn(CC(=O)c2ccc(-c3ccccc3)cc2)cc1	–	inconclusive [inhibitor, single point]
O=C(NC1CCCC1)c1cnn2c(C(F)(F)F)cc(-c3ccc4c(c3)OCO4)nc12	inactive: 2.17%	–
C/C(=N\Nc1ccc2nncn2n1)c1ccccn1	–	inconclusive [inhibitor, single point]
Cc1c(C)c2ccc(OCc3ccc(C(=O)O)o3)c(C)c2oc1=O	–	inconclusive [inhibitor, single point]
